In PubChem BioAssay AID1347043 (National Center for Advancing Translational Sciences (NCATS), 2019):
In all, about 76,000 compounds went through this assay and about 1,900 (2.5%) were called active. Inconclusive results, whose numbers are uncertain, are shown with a selection of clear calls. Calls follow the shape of the dose curve; as a rule, active = well fitted inhibition curve with a large enough effect; inconclusive = small, poorly fitted or top-dose-only effect; inactive = flat fitted curve, though single readings scatter. A potency beside an inconclusive call is a rough fit, not a confirmed value.

biological target: Luciferin 4-monooxygenase (Photinus pyralis) (UniProt P08659); assay: Firefly luciferase inhibition profiling of diverse chemical library using quantitative high-throughput screening; also: nearly all actives have a fitted effect of over 65% in size; conditions: purified P. pyralis luciferase, luminescence, biochemical; activity change, negative = inhibition: at 115 µM (top of the series) unless noted
Chain of UniProt P08659 (P08659 whole entry, looked up): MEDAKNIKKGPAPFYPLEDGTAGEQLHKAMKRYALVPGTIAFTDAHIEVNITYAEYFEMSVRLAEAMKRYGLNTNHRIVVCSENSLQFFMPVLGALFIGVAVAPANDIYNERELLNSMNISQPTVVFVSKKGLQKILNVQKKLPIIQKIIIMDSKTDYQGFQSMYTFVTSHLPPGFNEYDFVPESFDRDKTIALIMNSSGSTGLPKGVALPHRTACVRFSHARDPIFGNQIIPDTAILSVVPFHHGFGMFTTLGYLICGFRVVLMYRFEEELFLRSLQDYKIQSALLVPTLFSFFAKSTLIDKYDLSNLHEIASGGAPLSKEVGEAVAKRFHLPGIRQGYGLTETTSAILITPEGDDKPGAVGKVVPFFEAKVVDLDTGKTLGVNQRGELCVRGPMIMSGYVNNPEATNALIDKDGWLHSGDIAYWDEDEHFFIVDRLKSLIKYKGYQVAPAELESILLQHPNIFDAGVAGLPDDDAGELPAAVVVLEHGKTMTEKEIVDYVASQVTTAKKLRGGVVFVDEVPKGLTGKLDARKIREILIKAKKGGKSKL
Summary of the method: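 FLuc 10nM, D-luciferin 10uM, ATP 10uM, Mg acetate 10mM, Tris acetate pH 7.5, Tween/BSA; cpd qHTS; enzyme added last; CCD luminescence.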
% is scaled to controls: 0 for no effect and ±100 for the full control effect; potency is read from the fitted curve at half-maximal effect; tags tell the direction and shape of the fitted curve.

Row | SMILES | Potency | activity change, negative = inhibition
1 | O=c1n(-c2ccc([N+](=O)[O-])cc2)nc2n1CCN(CC1CC1)C2 | inconclusive: 56.2 µM [inhibitor, partial curve] | 
2 | COc1ccc(-c2cc3c(=O)n(CCNC(=O)Cc4cccs4)ccn3n2)cc1 | active: 8.91 µM | 
3 | CCOc1cc(=O)n2c(c1C(=O)Nc1ccc(S(N)(=O)=O)cc1)CCCC2 |  | inactive: 7.69%
4 | COc1ccc(-c2ccc3nc(-c4ccc(F)c(F)c4)oc3c2)c(OC)c1OC |  | inactive: -16.5%
5 | COc1ccccc1CN1CCNc2cc(Nc3ccccc3)ncc2C1 | inconclusive: 70.8 µM [inhibitor, full curve] | 
6 | CN(C(=O)Nc1ccc(Cl)cc1)C1CCCc2ccccc21 (stereo not given) | active: 28.2 µM | 
7 | Cc1noc(C)c1-c1cc2cc(C(C)C)oc2c(-c2c(C)noc2C)n1 |  | inactive: -9.34% [at 172 µM]
8 | Cc1cc(C)nc(SCc2ccc(-c3nc(C4CCOC4)no3)o2)n1 (stereo not given) | inconclusive: 79.4 µM [inhibitor, single point] | 
9 | COCCOCC(=O)N1CCCCCCNC(=O)[C@@H]2C[C@@H](c3nc(Cc4ccccc4)no3)C[C@@H]21 |  | inactive: -5.78%
10 | COCCNC(=O)c1ccc(-c2ccc(N3CCCCC3)nc2)cc1 | inconclusive: 35.5 µM [inhibitor, partial curve] | 
11 | O=C(NC1CCCCCCC1)C1CCCN(c2cnn(Cc3ccccc3)c(=O)c2)C1 (stereo not given) |  | inactive: 0.118%
12 | COc1ccccc1C(=O)NC1CCCN(c2cc(-c3ccc(F)cc3)[nH]n2)C1 (stereo not given) | inconclusive: 39.8 µM [inhibitor, partial curve] | 
13 | Cc1cc(C)cc(NC(=O)c2cc(-c3ccc[nH]3)n[nH]2)c1 | active: 20 µM | 
14 | COCC(=O)Nc1ccc(-c2noc([C@@H]3CCCN3CC(C)C)n2)cn1 |  | inactive: -6.86% [at 172 µM]
15 | O=C(Nc1ccc([C@H]2OCC(=O)N(Cc3ccccc3)[C@@H]2CO)cc1)c1ccc2c(c1)OCO2 | inconclusive: 50.1 µM [inhibitor, partial curve, poor fit] | 
16 | Cc1ccc(C(=O)N2CCC3(CCC(=O)N(CC4CC4)CC3)CC2)cc1F |  | inactive: 0%
17 | Cc1ccc(-c2noc(-c3nc(C4CC4)no3)n2)cc1 |  | inactive: -16.8%
18 | Cc1cc(CN(C)C2CCCc3ccccc32)no1 (stereo not given) |  | inactive: 6.27% [at 172 µM]
19 | c1ccc(Nc2cc3c(cn2)CN(Cc2ccc4[nH]ccc4c2)CCN3)cc1 | inconclusive: 56.2 µM [inhibitor, partial curve, poor fit] | 
20 | COc1ccc(C2Cn3cnc(C(=O)N4CCC(C(=O)Nc5ccccc5F)CC4)c3CO2)cc1 (stereo not given) | inconclusive: 44.7 µM [inhibitor, partial curve] | 
21 | CN(C)c1cccc(C(=O)NCCC2CCN(C(=O)Nc3cc(F)cc(F)c3)CC2)c1 | inconclusive: 44.7 µM [inhibitor, partial curve] | 
22 | Fc1ccc(-c2noc([C@@H]3Cc4nc[nH]c4CN3Cc3cc4ccccc4o3)n2)cc1Cl | inconclusive: 50.1 µM [inhibitor, partial curve] | 
23 | c1cc(-c2ccc3c(c2)OCCCO3)n2nc(C3CCC3)nc2n1 | inconclusive: 44.7 µM [inhibitor, partial curve] | 

Row | SMILES | Potency | activity change, negative = inhibition
24 | CN(C)CCNC(=O)c1nc(-c2ccc(N3CCN(C)CC3)cc2)cc2c1ccn2C | inconclusive: 126 µM [inhibitor, single point] | 
25 | Cc1ncc(S(C)(=O)=O)c(NCCn2nc(C)nc2C)n1 |  | inactive: 12.6%
26 | Cc1ccc(-c2cnc([C@@H]3COCCN3C)[nH]2)cc1 | inconclusive: 89.1 µM [inhibitor, partial curve] | 
27 | COc1ccc(NC(=O)N2CCC3(CC2)CC(N(C(=O)NC(C)C)C2CC2)CCO3)cc1 (stereo not given) | inconclusive: 44.7 µM [inhibitor, partial curve] | 
28 | COCCOC1CCN(C(=O)c2cn[nH]c2-c2ccc(F)cc2)CC1 | inconclusive: 39.8 µM [inhibitor, partial curve] | 
29 | O=C(NCCOc1ccccc1)c1ccc2c(c1)OCCN(c1ccccc1)C2 | inconclusive: 28.2 µM [inhibitor, full curve] | 
30 | Cc1ccc(-c2cc(N3CCC(CNC(=O)c4cccc(N(C)C)c4)CC3)n[nH]2)cc1 | inconclusive: 44.7 µM [inhibitor, partial curve] | 
31 | COc1cccc(-c2noc(CCCc3nc(-c4cccnn4)no3)n2)c1 | inconclusive: 35.5 µM [inhibitor, partial curve] | 
32 | CCOc1ccc(NC(=O)c2ccc(-c3nnc4ccc(NC(=O)C5CC5)cn34)cc2)cc1 |  | inactive: -18.6%
33 | O=C(NC1CCCCC1)N1Cc2[nH]cnc2C[C@H]1c1nc(-c2ccc3ccccc3c2)no1 | active: 25.1 µM | 
34 | Cc1ccc(-c2cc3c(=O)n(CCNC(=O)c4ccc(F)c(F)c4)ccn3n2)c(C)c1 | inconclusive: 1.58 µM [inhibitor, full curve, poor fit] | 
35 | COc1ccc(-c2cnc([C@@H]3COCCN3)[nH]2)cc1 | inconclusive: 89.1 µM [inhibitor, partial curve] | 
36 | O=C(c1ccoc1)N1CCC(n2cc(-c3nc(-c4ccccc4)no3)nn2)CC1 | inconclusive: 56.2 µM [inhibitor, partial curve] | 
37 | Cc1ccc(N2CC(c3noc(C4CCN(C(=O)c5ccccc5)CC4)n3)CC2=O)cc1 (stereo not given) |  | inactive: 11%
38 | CN(CC(=O)N1CCc2c(c(-c3nncn3Cc3ccccc3)nn2C)C1)S(=O)(=O)c1cnc[nH]1 | inconclusive: 39.8 µM [inhibitor, partial curve, poor fit] | 
39 | CN1c2cc(C(=O)Nc3cccc(C#N)c3)ccc2C(=O)N2CCCCCC21 (stereo not given) | active: 28.2 µM | 
40 | O=C(COc1ccc(F)cc1)N1CCCC(c2noc(COc3ccccc3)n2)C1 (stereo not given) | inconclusive: 31.6 µM [inhibitor, partial curve] | 
41 | COc1cccc(CNC(=O)C2(N3C[C@@H](C)O[C@@H](C)C3)Cc3ccccc3C2)c1 | inconclusive: 44.7 µM [inhibitor, partial curve] | 
42 | CO[C@H]1C(=O)N(C2CCN(C(=O)c3cc4ccccc4[nH]3)CC2)[C@H]1c1ccncc1 | inconclusive: 5.62 µM [inhibitor, partial curve] | 
43 | COc1ccc(-c2noc([C@@H](C)NC(=O)c3nc4ccccc4s3)c2C(=O)O)cc1 | inconclusive: 56.2 µM [inhibitor, partial curve] | 
44 | COc1ccc(NC(=O)N[C@H]2[C@H](O)[C@@H](Oc3ccccc3)[C@@H]3OC[C@H]2O3)cc1 |  | inactive: -1.48% [at 172 µM]
45 | CC(NC(=O)c1csc2nc(-c3cccc(C(F)(F)F)c3)cn12)c1ccncn1 (stereo not given) | active: 39.8 µM | 
